# Test system: nucleus accumbens dopamine
# Conditions: i.p. 60 min prior to cocaine 20 mg/kg; vigabatrin 300 mg/kg, CPP-115 1 mg/kg
smiles,measurement,value
"C=CC(N)CCC(=O)O (stereo not shown) [Vigabatrin, vigabatrin]",cocaine-induced increase in dopamine after pretreatment,331 ± 32%

# Source: paper PMC3257419 (Journal of Medicinal Chemistry, 2011)
